Laboratory results as given in PubChem BioAssay AID1671194 (National Center for Advancing Translational Sciences (NCATS), 2021).
About 240 (0.17%) of roughly 140,000 compounds were called active. Inconclusive means that the source gave no clear call. Such entries were picked first, then a sample of the others. Calls come from the whole dose curve; as a rule, active = well fitted inhibition curve with a large enough effect; inconclusive = small, poorly fitted or top-dose-only effect; inactive = no such curve, though single readings can be large or run the other way. Where the call is inconclusive, the potency comes from a doubtful curve fit.
Potency is the fitted concentration of half-maximal effect; tags give direction and shape of the fitted curve.

Assay: Primary qHTS assay for inhibitors of alpha-synuclein gene (SNCA) expression; note: nearly all actives have a fitted effect of over 45% in size;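 for activity change, negative = inhibition: plate controls were DMSO cells for no effect and cell-free wells for full effect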
Details: HEK-293 SNCA-luciferase knock-in, luminescence, 24 h; activity change, negative = inhibition: at 57.2 µM (top of the series) unless noted
In the case of `COc1ccc(CCNC(=O)CCCn2c(=O)c3ccccc3n(Cc3ccccc3C#N)c2=O)cc1OC`, the Potency is reported as inconclusive: 39.8 µM [inhibitor, single point]. For `O=C(c1ccc(Cl)cc1)N1CCC2(Cc3ccccc3NC2=O)C1` (configuration not stated), the Potency was “inactive”. For `COC(=O)CNC(=O)N1CCOc2ccc(CN3CCc4ccccc4C3)cc2C1`, the “activity change, negative = inhibition” value was inactive: 2.04%. For `COC[C@@H]1CN(Cc2ccncc2F)C[C@H]1C(=O)NC1CC1`, the Potency was inconclusive: 3.16 µM [inhibitor, partial curve, poor fit]. In the case of `CN(Cc1cccnc1)Cc1nc(C2(O)CCN(Cc3ccc(C(F)(F)F)cc3)CC2)cs1`, the Potency is reported as inconclusive: 3.55 µM [inhibitor, partial curve, poor fit]. With `O=C(O)c1ccc(-c2c[nH]c3ncc(-c4ccccc4)cc23)cc1C1CCCC1` the Potency was inconclusive: 8.57 µM [inhibitor, full curve, poor fit]. For `Cn1c(=O)c2c(nc(NCCc3ccccc3)n2Cc2ccc(Cl)cc2)n(C)c1=O`, the Potency was inconclusive: 39.8 µM [inhibitor, single point]. With `Cc1ccc(NC(=O)Cn2c(-c3ccc(F)cc3)nc(C)c(CCO)c2=O)cc1Cl` the “activity change, negative = inhibition” value was inactive: -14.4%. With `O=C1CCN(C(=O)[C@@H](Cc2ccccc2)NS(=O)(=O)c2cccc3cccnc23)CCOCCN1` the Potency was inconclusive: 0.708 µM [inhibitor, partial curve, poor fit]. With `c1ccc(Nc2cnc3ccc(-n4ccnc4)nn23)cc1` the Potency was inconclusive: 89.1 µM [inhibitor, single point]. In the case of `CCOc1ccccc1Nc1sc(C(=O)c2ccccc2)c(N)c1S(=O)(=O)c1ccc(C)cc1`, the Potency is reported as inconclusive: 28.2 µM [inhibitor, partial curve, poor fit]. In the case of `CC(C)OCC(=O)N1CCN(c2nc(-c3ccccc3)nc3c2CCC3)CC1`, the Potency is reported as inconclusive: 39.8 µM [inhibitor, single point]. For `Cc1cccc(-c2nocc2CCC(=O)NCc2cccs2)c1`, the Potency was inconclusive: 44.7 µM [inhibitor, single point]. In the case of `COc1ccc(Cl)cc1S(=O)(=O)N1CCC(n2cnnc2C(C)C)CC1`, the Potency is reported as inconclusive: 7.08 µM [inhibitor, single point]. With `Cn1nc(C2CCNC2)c2c(C(=O)NCc3cccs3)cc(C3CC3)nc21` (configuration not stated) the “activity change, negative = inhibition” value was inactive: 2.77%. With `O=C(c1cccnc1)N1CCn2ncc(C(=O)N3CCOCC3)c2C1` the Potency was inconclusive: 8.91 µM [inhibitor, single point]. For `O=S(=O)(NCC1CN(CC2CC2)CC12CCCCC2)c1cccnc1` (configuration not stated), the “activity change, negative = inhibition” value was inactive: 4.35%. In the case of `CN(CCc1ccccc1)Cc1cnc(S(C)(=O)=O)n1Cc1ccccc1F`, the Potency is reported as inconclusive: 25.1 µM [inhibitor, single point]. With `Cc1noc(C)c1-c1cc2c(cc(C)n2C)c(-c2cccc(CO)c2)n1` the “activity change, negative = inhibition” value was inactive: 17.3% [at 87.6 µM]. For `COc1ccc(-c2cc(N3CCC(NC(=O)c4cc(OC)c(OC)c(OC)c4)C3)n[nH]2)cc1` (configuration not stated), the Potency was inconclusive: 0.794 µM [inhibitor, full curve, poor fit]. In the case of `COC(=O)[C@@H]1Cc2c([nH]c3ccccc23)[C@@H]2C[C@@H](NCCNC(C)=O)C[C@@H](c3ccc(F)c(F)c3)N12`, the “activity change, negative = inhibition” value is reported as inactive: -9.88%. In the case of `C[C@@H](NC(=O)C1=C[C@@H](NC(=O)CC2(CC(=O)O)CCCC2)[C@@H](O)[C@H](O)C1)C(N)=O`, the Potency is reported as inconclusive: 5.62 µM [inhibitor, full curve, poor fit]. With `Cc1noc(-c2cccc(F)c2)c1C(=O)NCCc1ccc(F)cc1` the “activity change, negative = inhibition” value was inactive: -3.19%. In the case of `Cc1cc(C(=O)NCC(F)(F)F)c2c(C3CCNCC3)noc2n1`, the Potency is reported as inconclusive: 7.08 µM [inhibitor, single point]. In the case of `CSc1cccc(NC(=O)c2ccc3c(c2)N(C)C2CCCCN2C3=O)c1` (configuration not stated), the Potency is reported as inconclusive: 39.8 µM [inhibitor, single point]. With `Cc1ccc(C(=O)Oc2cc(-c3ccc4c(c3)OCO4)cc(=O)c3c(C)oc(C)c23)cc1` the Potency was inconclusive: 39.8 µM [inhibitor, single point]. In the case of `Cc1ccc(NC(=O)C2CCN(c3nc(-c4ccc(C(C)C)cc4)no3)CC2)c(Cl)c1`, the Potency is reported as inconclusive: 3.98 µM [inhibitor, full curve, poor fit]. For `O=C(O)C1CC2(CCN(C(=O)CCCn3ccnc3)CC2)CN1` (configuration not stated), the Potency was inconclusive: 0.631 µM [inhibitor, full curve, poor fit]. For `COc1ccc(C(=O)Oc2c(Sc3ccc(C)cc3)c(C)nn2C(C)(C)C)cc1OC`, the Potency was inconclusive: 20 µM [inhibitor, partial curve, poor fit]. In the case of `CCCOC1CCCN(C(=O)c2cc(Cl)ccc2OC2CCN(C(C)=O)CC2)C1` (configuration not stated), the Potency is reported as inconclusive: 1 µM [inhibitor, full curve, poor fit]. In the case of `Cc1ccc2c(CNCc3ccc(C)o3)c(C(=O)O)n(Cc3ccc(F)cc3)c2c1`, the Potency is reported as inconclusive: 39.8 µM [inhibitor, single point]. In the case of `CN1CC[C@@H](c2c(O)cc(O)c3c(=O)cc(-c4ccccc4Cl)oc23)[C@@H](O)C1`, the Potency is reported as active: 0.215 µM. For `Cc1nn(-c2ccc(F)cc2)c(Oc2ccc(F)cc2F)c1CCC(=O)NCC1CC1`, the Potency was inconclusive: 28.2 µM [inhibitor, single point]. For `N#Cc1ccc(CN2CCCC3(CCN(S(=O)(=O)c4ccccc4)CC3)C2)cc1`, the Potency was inconclusive: 39.8 µM [inhibitor, single point]. With `COC(=O)c1c(C)oc2ccc(N(C(=O)c3ccncc3)S(=O)(=O)c3cc(C)ccc3C)cc12` the Potency was inconclusive: 10 µM [inhibitor, partial curve, poor fit]. In the case of `Cc1ccc(OC(=O)CSc2nnc(-c3ccc4c(c3)OCO4)o2)cc1`, the Potency is reported as inconclusive: 39.8 µM [inhibitor, single point]. With `CCOc1ccc(-c2cc(CCCC(=O)NCCc3cc(OC)c(OC)c(OC)c3)no2)cc1` the Potency was inconclusive: 25.1 µM [inhibitor, partial curve, poor fit]. For `Cc1ccc(NC(=O)Cn2cc(C(=O)C3CCCCC3)c3ccccc32)cc1`, the Potency was inconclusive: 25.1 µM [inhibitor, single point]. For `O=C1c2cnc(-c3cc4ccccc4o3)nc2OCCN1CC1CC1`, the Potency was inconclusive: 2 µM [inhibitor, full curve, poor fit]. For `Cc1ccc(CN2CC[C@@H]3[C@H]2C(=O)NC[C@H](CCC(=O)N2CCN(C)CC2)N3C)cc1`, the “activity change, negative = inhibition” value was inactive: -20.1% [at 87.6 µM]. For `Nc1ccc(O)c([N+](=O)[O-])c1`, the “activity change, negative = inhibition” value was inactive: 153%. With `O=C(c1ccccc1)N1CCc2sc(C(=O)N3CCN(c4ccccn4)CC3)cc2C1` the “activity change, negative = inhibition” value was inactive: -20.1%. In the case of `CNC(=O)N1CCc2c(sc3ncnc(NCCCOC)c23)C1`, the Potency is reported as inconclusive: 8.91 µM [inhibitor, single point]. With `CCOc1ccc(-c2nc(CSCC(=O)NCc3ccc(C)cc3)c(C)o2)cc1` the Potency was inconclusive: 0.158 µM [inhibitor, partial curve, poor fit]. For `Cc1cccc(N2CCN(c3ncnc4c3nc3n4CCCCC3)CC2C)c1` (configuration not stated), the Potency was inconclusive: 39.8 µM [inhibitor, partial curve, poor fit]. In the case of `CC1(C)[C@H](Cc2cc(COc3ccccc3)on2)C[C@@H]1NC(=O)COc1ccccc1`, the “activity change, negative = inhibition” value is reported as inactive: -23.5% [at 87.6 µM]. For `CCN1C(=O)c2ccccc2S(=O)(=O)c2ccc(C(=O)NCc3ccc(OC)cc3)cc21`, the Potency was inconclusive: 39.8 µM [inhibitor, single point]. In the case of `CCC(C(=O)NC1CCCCC1)n1c(SCc2cccc(C)c2)nc2ccncc21` (configuration not stated), the Potency is reported as inconclusive: 3.98 µM [inhibitor, full curve]. For `COc1ccc(NC(=O)Nc2cccc(-c3ccc(N4CCCCC4)nn3)c2)c(OC)c1`, the “activity change, negative = inhibition” value was inactive: -57.9%. For `O=C(CC(c1ccc(F)cc1)c1cn(Cc2ccccc2)c2ccc([N+](=O)[O-])cc12)N1CCOCC1` (configuration not stated), the Potency was inconclusive: 39.8 µM [inhibitor, single point]. With `Cc1ccc(C(=O)NCCn2cccc2-c2nc(-c3ccc4c(c3)OCO4)no2)cc1` the “activity change, negative = inhibition” value was inactive: 62.9%. In the case of `Cc1nc(-c2cccc(Cl)c2)n(CC(=O)Nc2ccc(F)cc2)c(=O)c1CCO`, the Potency is reported as inconclusive: 28.2 µM [inhibitor, single point]. In the case of `CN1c2cc(C(=O)Nc3cccc(Cl)c3)ccc2C(=O)N2CCCCCC21` (configuration not stated), the “activity change, negative = inhibition” value is reported as inactive: 165%. For `O=C(OCc1ccccc1)N1CCn2cc(C(=O)N3CCOCC3)nc2C1`, the Potency was inconclusive: 11.2 µM [inhibitor, partial curve, poor fit]. For `CCc1ccccc1NC(=O)CSc1nnc(-c2ccccc2)c(-c2ccccc2)n1`, the Potency was inconclusive: 22.4 µM [inhibitor, partial curve, poor fit]. With `COc1cc(OC)cc(-c2cc3nc(C)c(CCC(=O)Nc4ccccc4OC)c(C)n3n2)c1` the Potency was inconclusive: 2.82 µM [inhibitor, full curve]. With `O=C(c1cccc(OC2CN(CC3CC=CCC3)C2)c1)N1CCCC1` (configuration not stated) the “activity change, negative = inhibition” value was inactive: -10.1%. For `Cc1ccc(-n2c(C3CCN(C(=O)c4ccc(F)cc4)CC3)n[nH]c2=O)cc1`, the Potency was inconclusive: 39.8 µM [inhibitor, single point]. In the case of `CN1CCCC2(CCN(C(=O)c3cc(=O)[nH]c4ccc(F)cc34)C2)C1=O` (configuration not stated), the Potency is reported as inconclusive: 3.16 µM [inhibitor, partial curve, poor fit]. For `O=C(c1ccco1)N1CCN(C(=O)C2CCc3ncc(-c4ccc(F)cc4)n3C2)CC1` (configuration not stated), the Potency was inconclusive: 7.94 µM [inhibitor, partial curve, poor fit]. In the case of `CS(=O)(=O)c1ccc(CN2C[C@@H]3OCC(=O)N(c4ccccc4)[C@@H]3C2)cc1`, the Potency is reported as inconclusive: 35.5 µM [inhibitor, single point]. For `CN(C1CCCCC1)S(=O)(=O)c1ccc2c(c1)c(=O)c(C(=O)NCc1ccc(F)cc1)cn2C`, the Potency was inconclusive: 10 µM [inhibitor, partial curve, poor fit].
